Experimental data taken from ChEMBL document CHEMBL4888484, “Replenishing the malaria drug discovery pipeline: Screening and hit evaluation of the MMV Hit Generation Library 1 (HGL1) against asexual blood stage Plasmodium falciparum ,using a nano luciferase reporter read-out” (2022).
About 540 (0.36%) of roughly 150,000 compounds showed an effect of 50% or more. The list shows a part of the results.

tested on: Plasmodium falciparum; assay: Primary screen in NF54 nanoGlo assay, in single point, at 2uM, 72h; a lower Z score goes with more inhibition; assay type: functional, Erythrocyte; conditions: timepoint 72 hour

SMILES | % Inhibition [%] | Z score
COc1cc(OC)cc(C(=O)N(C(=O)c2cc(OC)cc(OC)c2)c2cccc(C)n2)c1 | 3 | -0.36
CO[C@@H](CS(=O)(=O)Nc1c(C)cc(C)cc1C(=O)O)c1ccc(F)cc1 | -1 | 0.11
O=C(Nc1cncc(Cl)c1)N1CC(CO)C1 | -1 | 0.11
CCN(CC)C(=O)NCc1ccccc1OC | -3 | 0.58
Cc1nn(C)c2ncnc(Nc3ccc4cn[nH]c4c3)c12 | 2 | -0.31
COc1ccc(Cl)cc1NC(=O)Cn1nc2c(Oc3ccccc3C)nc3ccccc3n2c1=O | -12 | 1.15
N#Cc1ccccc1CN1CCN(C(=O)c2ccccn2)[C@H]2CS(=O)(=O)C[C@H]21 | -4 | 0.68
O=C(CCC(F)(F)F)N[C@H]1CCOC[C@@H]1O | 1 | -0.17
C[C@H](NC(=O)N1CC[C@@H]2OCC(=O)N[C@H]2C1)c1ccc(F)cc1Cl | -9 | 1.67
Cn1cccc(C(=O)NCCc2nc3c(c(C(F)(F)F)n2)CCCC3)c1=O | -2 | 0.26
Cn1cc(C(NC(=O)c2ccc(Cl)cc2F)[C@H]2C[C@H](O)C2)cn1 (some centres undefined) | -17 | 1.54
C[C@H]1CC[C@@H](C(=O)O)N1S(=O)(=O)c1ccc(C(F)(F)F)s1 | -10 | 1.09
CCN(CC)[C@H]1CCN(Cc2nc(C3(c4ccc(C)cc4)CCCC3)no2)C1 | -12 | 1.58
CN(C(=O)NC(=O)c1ccccc1)c1ccccc1 | 0 | 0.03
CC(C)c1ccc(-n2cc(O)c(C(=O)N(C)C3CCN(C(=O)OC(C)(C)C)CC3)n2)cc1 | 0 | -0.04
CN(CC(=O)NCCc1cccc2cccnc12)CC1(O)CCCC1 | -17 | 1.53
O=C(NCCCc1ccccc1)C1CCN(c2nnc3ccc(Cl)cn23)CC1 | -21 | 2.28
COCC1(C(=O)Nc2cc(OC)ccc2-n2cnnn2)CCC1 | -14 | 2.74
O=C(C[C@H]1C(=O)NCCN1Cc1ccc2ccccc2c1)NCc1ccc(Cl)cc1 | -12 | 1.7
C[C@]1(F)CCN(C(=O)c2cc(C#N)c[nH]2)C1 | -3 | 0.6
CN(CCC1CCOCC1)[C@H]1CCN(c2ccccc2)C1=O | -10 | 1.31
COc1ccc(C(=O)N2CCCCCC2=O)cc1 | 2 | -0.37
O=C(c1ccccc1)N1CCCn2cc(-c3ccc4c(c3)OCO4)nc21 | -3 | 0.59
CCc1ccccc1OCCN1CC[C@]2(O)CCN(C(=O)C3CCC3)C[C@@H]2C1 | -11 | 1.96
C[C@H]1[C@@H](NC(=O)c2csc(C(C)(C)C)n2)CCS1(=O)=O | -8 | 1.39
CC(C)(C(N)=O)N1CCN(C(=O)NC[C@H]2CCCO2)CC1 | -4 | 0.55

SMILES | % Inhibition [%] | Z score
COc1cc(-c2noc(C3CCCC3)n2)ccc1OCc1cccc(C)c1 | -5 | 0.59
CC1CC1C(NC(=O)C(C)N1CCN(C)CC1)c1ccc(Cl)cc1 (centres undefined) | -7 | 0.74
O=C(Cn1nc2n(c1=O)C(=O)N(c1ccc(Cl)cc1)C2)Nc1nccs1 | -6 | 0.72
Cn1cnnc1C[C@H]1CCN(S(=O)(=O)c2ccc3c(c2)CCC3)C1 | -11 | 1.4
CCOC(=O)N1CCc2c(sc(NC(=O)CN3CCOCC3)c2C(=O)Nc2cccc(Cl)c2)C1 | 3 | -0.47
CN1C(=O)[C@@H]2CCC[C@H]1CN(C(=O)NCc1cc(Cl)ccc1Cl)C2 | -13 | 2.71
CCCN1C[C@@H](CNC(=O)c2cnc3c(c2)ncn3C)CC1=O | -8 | 1.52
CCc1nccc(CN(C)[C@@H](C)c2ccncn2)n1 | 9 | -0.85
Cn1cc(-c2ccc(F)cc2)cc1C(=O)N1CCCC1 | 6 | -0.98
Cc1ccccc1N1CCCN(C(=O)Cn2ncc(N3CCCCC3)cc2=O)CC1 | -13 | 2.25
CC1CCC(NC(=O)N2CCC(S(C)(=O)=O)C2)c2ccccc21 (centres undefined) | -11 | 2.17
O=C(c1csc(S(=O)(=O)N2CCC(C(=O)N3CCCCCC3)CC2)c1)N1CCCCC1 | -18 | 2.93
Cc1cccc(-c2nc(C)c(Cc3ccccc3)c(N3CCN(C(=O)Nc4cccc(C)c4C)CC3)n2)c1 | 11 | -1.64
O=C(c1ccc2c(c1)C(=O)N(c1ccccc1Cl)C2=O)c1ccc2c(c1)C(=O)N(c1ccccc1Cl)C2=O | 11 | -1.39
O=C(O)c1ccccc1-c1nccn1Cc1cnn(Cc2ccccc2)c1 | -8 | 1.42
CN(Cc1ccccn1)C(=O)C1(N2CCCCC2)Cc2ccccc2C1 | -17 | 2.66
CCc1cc2c(N3CCC4(CC3)C[C@@H]4C(=O)O)ncnc2s1 | -7 | 1.47
O=C(NC1CCCCCC1)c1nc(Cn2cnc3ccccc3c2=O)no1 | -7 | 0.86
COc1c(C)cc(NS(=O)(=O)c2ccc(-n3c(=O)c(C(C)C)c(C)n3C)cc2)cc1C | -9 | 1.56
C[C@@H](C(=O)NC1CCCC1)N1CCC(NC(=O)c2ccccc2)CC1 | 12 | -1.65
Cc1nc(-c2ccc(Br)cc2Cl)nn1CN1CCN(c2ncccn2)CC1 | -11 | 1.48
Cc1cc(C)n(-c2nc(CCNC(=O)c3cn(C)nn3)cs2)n1 | -4 | 0.56
Cc1ccc(Oc2ccc(C#N)nn2)cc1F | 7 | -1.24
CCN(Cc1noc(C2CCC2)n1)Cc1ccccc1C#N | -1 | 0.12
COc1ccc(CCCCNC(=O)NC2CC3CCC2O3)cc1 (centres undefined) | -4 | 0.43
CNC(=O)c1[nH]nc2c1CN(C(=O)N[C@H]1CC(=O)N(c3ccc(F)cc3)C1)CC2 | -7 | 0.79
